For assay [1], the target named is T1, human BCMA-His protein (human, UniProt Q02223 1-54).
T1 construct: Analyte in the SPR assay; also called human BCMA protein; BCMA antigen protein; not shown: His tag
T1 sequence (looked up): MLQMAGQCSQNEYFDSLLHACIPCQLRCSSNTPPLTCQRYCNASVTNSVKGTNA
Nature of the assay: SPR, antibody captured on Protein A chip, BCMA-His as analyte. A digest of the protocol:
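Kinetics (Ka, Kdis, apparent KD) fitted to a Langmuir 1:1 model after double referencing. In HBS-EP+ at 25° C, BCMA-His from 200 nM (five 1:1 dilutions) flowed 240 s at 30 μL/min over Protein A-captured antibody; dissociation followed up to 600 s.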
A general note: Surface plasmon resonance follows binding to a sensor surface in real time, without labels.

Assay [2] addresses T2, BCMA expressed endogenously on U266 and H929 cells (UniProt Q02223 1-184, limits assumed).
T2 construct: whole, on cells; The cell line (U266 or H929) is named under assay in each row; also called B cell maturation antigen; CD269
T2 sequence (looked up): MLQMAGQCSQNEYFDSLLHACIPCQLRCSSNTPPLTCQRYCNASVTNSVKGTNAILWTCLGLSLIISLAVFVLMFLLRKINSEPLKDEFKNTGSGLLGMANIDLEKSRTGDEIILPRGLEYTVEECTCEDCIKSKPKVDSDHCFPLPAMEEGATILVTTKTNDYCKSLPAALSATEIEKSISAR
The assay can be described thus: FACS on H929 cells.

Assay [3] deals with T2, BCMA expressed endogenously on U266 and …. Nature of the assay: FACS on U266 cells. The gist of the method: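 Binding measured by flow cytometry as mean fluorescence intensity, with EC50 from curve fitting. Antibody incubated 1 h at 4° C with cells suspended at 2×10⁶/ml in PBS containing 2% FCS, followed by washes.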

This note sets out measurements from US20250297021A1 (SHANDONG SIMCERE BIOPHARMACEUTICAL CO NO 1, published 2025).

B1: BCMA-mAb03 (Fc fusion)
scFv: QIPLVQSGPELKKPGETVKISCKASGYTFTNYAMTWVKQAPGKGLKWMGWIDTYSGVPTYADDFKGRFAFSLETSATTAYLQINNLKNEDTATYFCARVGVYGGYDTLDSWGQGTSVTVSSGGGGSGGGGSGGGGSDIQMTQTTSSLSASLGDRVTISCSASQGISNHLNWYQQKPDGTVKLLIYYTSSLHSGVPSRFSGSGSGTDYSLTISNLEPEDFATYYCQQYNNLPWTFGGGTKLEIK[human IgG1 Fc with C220S (EU numbers) not spelt out]
notes: human-mouse chimeric scFv-Fc
B1: in assay [1], the dissociation constant (Kd) came to 0.114 nM, the koff stood at 0.000145 s⁻¹ and the kon is 1.27e+06 M⁻¹ s⁻¹. In assay [2], the EC50 came to 7.56 nM and the “Maximum mean fluorescence intensity” value stood at 7590. In assay [3], a half-maximal effect (EC50) was put at 19 nM and the “Maximum mean fluorescence intensity” value amounted to 3630.

B2: BCMA-01 VL2VH3 (Fc fusion)
scFv: EVKLVESGGGLVQPGGSLRLSCAASGFTFSDFYMYWVRQAPEKRLEWVAYITNGGENTYFPDTVKGRFTISRDNAKNSLYLQMNSLRAEDTAVYYCARQNPFYYYDSNYDYAMDFWGQGTTVTVSSGGGGSGGGGSGGGGSDVVMTQSPLSLPVTLGQPASISCKSSQSLLYSNGKTYLSWLFQRPGQSPKRLIYLVSELDSGVPDRFSGSGSGTDFTLKISRVEAEDVGVYYCVQGTHFPHTFGGGTKVEIK[human IgG1 Fc with C220S (EU numbers) not spelt out]
notes: humanized scFv-Fc
Turning to B2, in assay [1], the Kd was determined as 0.321 nM, the koff stood at 0.000605 s⁻¹ and the kon was 1.88e+06 M⁻¹ s⁻¹. In assay [2], the EC50 was found to be 6.13 nM and the “Maximum mean fluorescence intensity” value turned out to be 10800. Moreover, in assay [3], the EC50 came out at 10.5 nM and the “Maximum mean fluorescence intensity” value stood at 4100.

B3: BCMA-01 VL1VH2 (Fc fusion)
scFv: EVQLVESGGGLVQPGGSLRLSCAASGFTFSDFYMYWVRQAPEKRLEWVAYITNGGENTYFPDTVKGRFTISRDNAKNSLYLQMNSLRAEDTAVYYCARQNPFYYYDSNYDYAMDFWGQGTTVTVSSGGGGSGGGGSGGGGSDVVMTQSPLSLPVTLGQPASISCKSSQSLLYSNGKTYLSWLFQRPGQSPRRLIYLVSELDSGVPDRFSGSGSGTDFTLKISRVEAEDVGVYYCVQGTHFPHTFGGGTKVEIK[human IgG1 Fc with C220S (EU numbers) not spelt out]
notes: humanized scFv-Fc
On to B3, for which, in assay [1], the Kd was 0.32 nM, the koff came to 0.000614 s⁻¹ and the kon turned out to be 1.92e+06 M⁻¹ s⁻¹. In addition, in assay [2], a half-maximal response (EC50) required 11 nM and the “Maximum mean fluorescence intensity” value is 10400. Also, in assay [3], the EC50 came out at 12.1 nM and the “Maximum mean fluorescence intensity” value turned out to be 3840.

B4: BCMA-03 VL2VH3a (Fc fusion)
scFv: EVPLVQSGSELKKPGASVKVSCKASGYTFTNYAMTWVRQAPGQGLEWMGWIDTYSGVPTYADSFKGRFVFSLETSASTAYLQISSLKAEDTAVYYCARVGVYGGYDTLDSWGQGTTVTVSSGGGGSGGGGSGGGGSDIQMTQSPSSLSASVGDRVTITCSASQGISNHLNWYQQKPDKTVKLLIYYTSSLHSGVPSRFSGSGSGTDFTLTISSLQPEDFATYYCQQYNNLPWTFGGGTKVEIK[human IgG1 Fc with C220S (EU numbers) not spelt out]
notes: humanized scFv-Fc
In the case of B4, in assay [1], the affinity, expressed as Kd, was 0.213 nM; the koff stood at 0.000262 s⁻¹; the kon was 1.23e+06 M⁻¹ s⁻¹. Moreover, in assay [2], the EC50 came out at 14.1 nM and the “Maximum mean fluorescence intensity” value came to 9220. In assay [3], the EC50 stood at 25.1 nM and the “Maximum mean fluorescence intensity” value amounted to 3530.

B5: BCMA-03 VL3VH3a (Fc fusion)
scFv: EVPLVQSGSELKKPGASVKVSCKASGYTFTNYAMTWVRQAPGQGLEWMGWIDTYSGVPTYADSFKGRFVFSLETSASTAYLQISSLKAEDTAVYYCARVGVYGGYDTLDSWGQGTTVTVSSGGGGSGGGGSGGGGSDIQMTQSPSSLSASVGDRVTITCSASQGISNHLNWYQQKPDGTVKLLIYYTSSLHSGVPSRFSGSGSGTDFTLTISSLQPEDFATYYCQQYNNLPWTFGGGTKVEIK[human IgG1 Fc with C220S (EU numbers) not spelt out]
notes: humanized scFv-Fc
In assay [1], B5 showed a Kd of 0.236 nM, a koff of 0.000261 s⁻¹ and a kon of 1.11e+06 M⁻¹ s⁻¹. In assay [2], a half-maximal effect (EC50) was put at 12.2 nM and the “Maximum mean fluorescence intensity” value turned out to be 10100. In assay [3], the EC50 was determined as 18.8 nM and the “Maximum mean fluorescence intensity” value was 3450.

B6: BCMA-03 VL1VH3a (Fc fusion)
scFv: EVPLVQSGSELKKPGASVKVSCKASGYTFTNYAMTWVRQAPGQGLEWMGWIDTYSGVPTYADSFKGRFVFSLETSASTAYLQISSLKAEDTAVYYCARVGVYGGYDTLDSWGQGTTVTVSSGGGGSGGGGSGGGGSDIQMTQSPSSLSASVGDRVTITCSASQGISNHLNWYQQKPGKAVKLLIYYTSSLHSGVPSRFSGSGSGTDFTLTISSLQPEDFATYYCQQYNNLPWTFGGGTKVEIK[human IgG1 Fc with C220S (EU numbers) not spelt out]
notes: humanized scFv-Fc
In assay [1], B6 registered a Kd of 0.22 nM, a koff of 0.000287 s⁻¹ and a kon of 1.3e+06 M⁻¹ s⁻¹. Further, in assay [2], the EC50 stood at 12.1 nM and the “Maximum mean fluorescence intensity” value turned out to be 10300. Besides, in assay [3], the EC50 is 16.2 nM and the “Maximum mean fluorescence intensity” value came to 3500.

B7: BCMA-mAb01 (Fc fusion)
scFv: EVKLVESGGGLVQPGGSLKLSCAASGFTFSDFYMYWVRQTPEKRLEWVAYITNGGENTYFPDTVKGRFTISRDNAKNTLYLQMSRLKSEDTAMYYCARQNPFYYYDSNYDYAMDFWGQGTSVTVSSGGGGSGGGGSGGGGSDVVMTQTPLTLSVTIGQPASISCKSSQSLLYSNGKTYLSWLFQRPGQSPKRLIYLVSELDSGVPDRFTGSGSGTDFTLKISRVEAEDLGIYYCVQGTHFPHTFGGGTKLEIK[human IgG1 Fc with C220S (EU numbers) not spelt out]
notes: human-mouse chimeric scFv-Fc
For the molecule B7, in assay [1], binding was put at a Kd of 0.511 nM, the koff was 0.000814 s⁻¹ and the kon turned out to be 1.59e+06 M⁻¹ s⁻¹. Moreover, in assay [2], the EC50 amounted to 4.12 nM and the “Maximum mean fluorescence intensity” value is 10500. Further, in assay [3], the midpoint of the response, the EC50, lay at 7.48 nM and the “Maximum mean fluorescence intensity” value turned out to be 3930.

B8: BCMA-04 VL1VH3a (Fc fusion)
scFv: EVQLVQSGAEVKKPGSSVKVSCKASGYSFTSYGISWVRQAPGQGLEWMGEIYPRDQITYYNEKFKGRVTLTADKSTSTAYMELSSLRSEDTAVYYCARHDYYYVNSVSAMDYWGQGTTVTVSSGGGGSGGGGSGGGGSDIVMTQSPDSLAVSLGERATINCKSSQSLLYSSNQKNYLAWYQQKPGQSPKLLIYWASTRYSGVPDRFSGSGSGTDFTLTISSLQAEDVAVYYCQQYYIYPWTFGGGTKVEIK[human IgG1 Fc with C220S (EU numbers) not spelt out]
In assay [1], B8 gave a Kd of 0.115 nM, a koff of 0.000114 s⁻¹ and a kon of 987000 M⁻¹ s⁻¹. Besides, in assay [2], the EC50 turned out to be 33.2 nM and the “Maximum mean fluorescence intensity” value stood at 7260. In assay [3], the EC50 is 37.9 nM and the “Maximum mean fluorescence intensity” value turned out to be 3400.

Usually Kd stands for a measure of binding affinity in units of concentration. As a reminder, the koff is the rate constant with which the complex falls apart. Low readings indicate a long-lived complex, high ones a short-lived complex. The term kon denotes the second-order rate constant of association. Higher therefore signals fast association. Broadly, the EC50 is the concentration giving half of the maximal effect. Read a high EC50 as lower potency in that assay.
